In the supplement of paper PMC12217912:
This is one part of the list. Sequences were assembled here from the parent chain. Values near 0.05 are background.

B1: TEV protease; numbered along this chain (parent)
chain: MGESLFKGPRDYNPISSSICHLTNESDGHTTSLYGIGFGPFIITNKHLFRRNNGTLVVQSLHGVFKVKDTTTLQQHLVDGRDMIIIRMPKDFPPFPQKLKFREPQREERICLVTTNFQTKSMSSMVSDTSCTFPSGDGIFWKHWIQTKDGQCGSPLVSTRDGFIVGIHSASNFTNTNNYFTSVPKNFMELLTNQEAQQWVSGWRLNADSVLWGGHKVFMVKPEEPFQPVKEATQL

Variants of: B1
Assay: raw area under fraction-flipped curve 0-4 h after induction (AUC4h, not background-subtracted), DNA-recorder readout of cleavage of the substrate (dimensionless); higher = more cleavage of the substrate by the protease variant
Conditions: temperature: 34 °C; time window: 0-4 h after rhamnose induction
Procedure: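 In vivo DNA recorder in E. coli TOP10(DE3) ΔrhaA at 34 °C. Each TEVp single-site mutant (parent TEVp 0) is paired with a single-site variant of the 7-mer TEVs (canonical ENLYFQ|S). The substrate sits between flexible linkers in a Bxb1-sfGFP-TEVs-SsrA fusion, so cleavage stabilises Bxb1 and speeds flipping of a recombination array, read by NGS. The value is the raw area under the fraction-flipped curve over 0-4 h after rhamnose induction (AUC4h), with ≥20 reads per time point. It is not background-subtracted; inactive controls average about 0.047.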
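Further: Bxb1 expression induced with 0.2% (w/v) L-rhamnose at OD600 near 0.5, cultures sampled hourly, flipped fraction per protease–substrate barcode pair counted by paired-end Illumina sequencing.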

Variant	area with substrate ENLAFQS	area with substrate ENLFFQS	area with substrate ENLHFQS	area with substrate ENLKFQS	area with substrate ENLLFQS	area with substrate ENLNFQS	area with substrate ENLPFQS	area with substrate ENLQFQS	area with substrate ENLRFQS	area with substrate ENLSFQS	area with substrate ENLVFQS	area with substrate ENLCFQS	area with substrate ENLEFQS	area with substrate ENLDFQS	area with substrate ENLIFQS	area with substrate ENLWFQS	area with substrate ENLGFQS	area with substrate ENLMFQS	area with substrate ENLTFQS
MGESLFKGPRDYNPISSSICHLTNESDGHTTSLYGIGFGPFIITNKHLFRRNNGTLVVQSLHGVFKVKDTTTLQQHLVNGRDMIIIRMPKDFPPFPQKLKFREPQREERICLVTTNFQTKSMSSMVSDTSCTFPSGDGIFWKHWIQTKDGQCGSPLVSTRDGFIVGIHSASNFTNTNNYFTSVPKNFMELLTNQEAQQWVSGWRLNADSVLWGGHKVFMVKPEEPFQPVKEATQL [D79N]	0.056	0.064	0.053	0.102	0.0374	0.0544	0.0338	0.0888	0.0665	0.0437	0.0851								
MGESLFKGPRDYNPISSSICHLTNESDGHTTSLYGIGFGPFIITNKHLFRRNNGTLVVQSLHGVFKVKDTTTLQQHLVDARDMIIIRMPKDFPPFPQKLKFREPQREERICLVTTNFQTKSMSSMVSDTSCTFPSGDGIFWKHWIQTKDGQCGSPLVSTRDGFIVGIHSASNFTNTNNYFTSVPKNFMELLTNQEAQQWVSGWRLNADSVLWGGHKVFMVKPEEPFQPVKEATQL [G80A]	0.0745	0.0968	0.0727	0.0976	0.0778		0.0614	0.0749		0.0358	0.0707	0.0655	0.0638						
MGESLFKGPRDYNPISSSICHLTNESDGHTTSLYGIGFGPFIITNKHLFRRNNGTLVVQSLHGVFKVKDTTTLQQHLVDDRDMIIIRMPKDFPPFPQKLKFREPQREERICLVTTNFQTKSMSSMVSDTSCTFPSGDGIFWKHWIQTKDGQCGSPLVSTRDGFIVGIHSASNFTNTNNYFTSVPKNFMELLTNQEAQQWVSGWRLNADSVLWGGHKVFMVKPEEPFQPVKEATQL [G80D]	0.0755	0.0787	0.0817	0.0894		0.0651	0.0471	0.0628	0.0711			0.0489	0.0617	0.0228	0.0751	0.0651			
MGESLFKGPRDYNPISSSICHLTNESDGHTTSLYGIGFGPFIITNKHLFRRNNGTLVVQSLHGVFKVKDTTTLQQHLVDERDMIIIRMPKDFPPFPQKLKFREPQREERICLVTTNFQTKSMSSMVSDTSCTFPSGDGIFWKHWIQTKDGQCGSPLVSTRDGFIVGIHSASNFTNTNNYFTSVPKNFMELLTNQEAQQWVSGWRLNADSVLWGGHKVFMVKPEEPFQPVKEATQL [G80E]	0.076	0.093		0.0765	0.0787	0.0591		0.0682	0.0838	0.0686	0.113	0.0736		0.0683					
MGESLFKGPRDYNPISSSICHLTNESDGHTTSLYGIGFGPFIITNKHLFRRNNGTLVVQSLHGVFKVKDTTTLQQHLVDIRDMIIIRMPKDFPPFPQKLKFREPQREERICLVTTNFQTKSMSSMVSDTSCTFPSGDGIFWKHWIQTKDGQCGSPLVSTRDGFIVGIHSASNFTNTNNYFTSVPKNFMELLTNQEAQQWVSGWRLNADSVLWGGHKVFMVKPEEPFQPVKEATQL [G80I]	0.0524	0.0599	0.0581	0.0655		0.0562	0.0535		0.0516	0.0629			0.0575	0.0442	0.0674		0.0613		
MGESLFKGPRDYNPISSSICHLTNESDGHTTSLYGIGFGPFIITNKHLFRRNNGTLVVQSLHGVFKVKDTTTLQQHLVDMRDMIIIRMPKDFPPFPQKLKFREPQREERICLVTTNFQTKSMSSMVSDTSCTFPSGDGIFWKHWIQTKDGQCGSPLVSTRDGFIVGIHSASNFTNTNNYFTSVPKNFMELLTNQEAQQWVSGWRLNADSVLWGGHKVFMVKPEEPFQPVKEATQL [G80M]	0.06	0.0975		0.0836		0.0661	0.0671						0.0949	0.0687	0.0686		0.0588	0.066	0.0668
MGESLFKGPRDYNPISSSICHLTNESDGHTTSLYGIGFGPFIITNKHLFRRNNGTLVVQSLHGVFKVKDTTTLQQHLVDQRDMIIIRMPKDFPPFPQKLKFREPQREERICLVTTNFQTKSMSSMVSDTSCTFPSGDGIFWKHWIQTKDGQCGSPLVSTRDGFIVGIHSASNFTNTNNYFTSVPKNFMELLTNQEAQQWVSGWRLNADSVLWGGHKVFMVKPEEPFQPVKEATQL [G80Q]	0.0669	0.0908	0.0711	0.0645	0.0625	0.0643	0.0608	0.0767	0.0913	0.0646	0.0668	0.0788	0.061	0.0706	0.0939	0.0686		0.063	
MGESLFKGPRDYNPISSSICHLTNESDGHTTSLYGIGFGPFIITNKHLFRRNNGTLVVQSLHGVFKVKDTTTLQQHLVDGHDMIIIRMPKDFPPFPQKLKFREPQREERICLVTTNFQTKSMSSMVSDTSCTFPSGDGIFWKHWIQTKDGQCGSPLVSTRDGFIVGIHSASNFTNTNNYFTSVPKNFMELLTNQEAQQWVSGWRLNADSVLWGGHKVFMVKPEEPFQPVKEATQL [R81H]	0.0545	0.108	0.0615	0.0722	0.0587	0.0652	0.0727	0.0626	0.0686	0.0605		0.0518	0.0591	0.0687	0.0682		0.0659	0.0804	
MGESLFKGPRDYNPISSSICHLTNESDGHTTSLYGIGFGPFIITNKHLFRRNNGTLVVQSLHGVFKVKDTTTLQQHLVDGRDMILIRMPKDFPPFPQKLKFREPQREERICLVTTNFQTKSMSSMVSDTSCTFPSGDGIFWKHWIQTKDGQCGSPLVSTRDGFIVGIHSASNFTNTNNYFTSVPKNFMELLTNQEAQQWVSGWRLNADSVLWGGHKVFMVKPEEPFQPVKEATQL [I85L]	0.0794	0.094	0.0645	0.0897		0.0721	0.0637	0.0907		0.0751	0.119			0.0673	0.116			0.0786	
